# Out of some 270,000 compounds screened, about 5,800 (2.1%) were called active. The inconclusive results got no clear call from the source; some entries with a clear call stand among them for comparison. The call rests on the fitted dose curve; in most records, active means well fitted inhibition curve with a large enough effect; inconclusive means small, poorly fitted or top-dose-only effect; inactive means flat fitted curve, though single readings scatter. Potencies of inconclusive entries are doubtful fits and often do not repeat.
# Molecular target: Microtubule-associated protein tau (Homo sapiens) (UniProt P10636)
# Sequence of UniProt P10636 (P10636 whole entry, looked up): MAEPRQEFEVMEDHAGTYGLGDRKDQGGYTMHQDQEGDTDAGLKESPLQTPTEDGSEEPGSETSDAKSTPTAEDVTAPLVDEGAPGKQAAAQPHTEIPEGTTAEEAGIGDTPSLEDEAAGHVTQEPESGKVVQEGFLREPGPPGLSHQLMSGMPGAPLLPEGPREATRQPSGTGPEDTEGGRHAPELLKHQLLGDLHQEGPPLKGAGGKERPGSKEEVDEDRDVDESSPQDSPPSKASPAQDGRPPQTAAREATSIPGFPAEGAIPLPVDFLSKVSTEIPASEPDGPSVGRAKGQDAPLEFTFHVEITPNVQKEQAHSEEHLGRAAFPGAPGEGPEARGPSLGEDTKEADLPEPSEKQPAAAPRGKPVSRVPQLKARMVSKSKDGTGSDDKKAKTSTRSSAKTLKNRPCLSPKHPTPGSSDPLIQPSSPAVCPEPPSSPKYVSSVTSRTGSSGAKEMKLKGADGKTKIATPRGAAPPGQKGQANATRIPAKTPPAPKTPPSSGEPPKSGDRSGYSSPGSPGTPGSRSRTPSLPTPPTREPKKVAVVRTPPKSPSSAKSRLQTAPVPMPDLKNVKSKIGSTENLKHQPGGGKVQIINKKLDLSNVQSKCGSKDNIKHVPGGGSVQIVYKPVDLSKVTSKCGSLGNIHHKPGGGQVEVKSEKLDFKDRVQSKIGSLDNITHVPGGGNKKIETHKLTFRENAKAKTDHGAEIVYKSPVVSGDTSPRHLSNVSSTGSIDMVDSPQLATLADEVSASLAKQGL
# Assay: qHTS for Inhibitors of Tau Fibril Formation, Thioflavin T Binding; further: nearly all actives have a fitted effect of over 55% in size
# Settings: recombinant tau K18 P301L (four-repeat tau fragment), heparin-induced fibrillization, ThT fluorescence; series mostly up to 57.4 µM
# Method in brief: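 K18 P301L tau (15 uM + 0.24 uM Alexa 594-tagged), heparin 20 uM, NaOAc pH 7, 6 h 37 C; ThT 30 uM, 1 h RT, ex 450/em 510 nm.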
# Potency means the concentration at half of the fitted maximal effect; tags describe the fitted curve by direction and shape.
row,SMILES,Potency
1,CC(=O)Nc1nc2ccc(-c3nc4ccccc4o3)cc2s1,"inconclusive: 2.82 µM [inhibitor, full curve]"
2,O=C(CSc1n[nH]c(=O)[nH]c1=O)c1cccc([N+](=O)[O-])c1,inactive
3,O=S(=O)(CCSc1nc2ccccc2s1)c1nc2ccccc2s1,"inconclusive: 28.2 µM [inhibitor, partial curve]"
4,Cc1cccc(N2CCC(N=CN(C)C)=N2)c1,"inconclusive: 17.8 µM [inhibitor, partial curve]"
5,CCn1cc(C(=O)NCc2ccco2)c(=O)c2cc(F)c(N3CCN(C(=O)c4ccco4)CC3)cc21,"inconclusive: 12.6 µM [inhibitor, partial curve, poor fit]"
6,N#Cc1c(N)[nH]c(=S)c(C#N)c1-c1ccccc1,"inconclusive: 35.5 µM [inhibitor, partial curve]"
7,COc1cccc(NC(=O)c2sc3nc4n(c(=O)c3c2C)CCC4)c1,"inconclusive: 39.8 µM [inhibitor, single point]"
8,Cc1c(C(=O)N(Cc2ccccc2)Cc2cccnc2)cnn1-c1ccc(F)cc1,"inconclusive: 3.55 µM [inhibitor, single point]"
9,COc1ccc2[nH]c(=O)c(CN(Cc3ccco3)C(c3nnnn3Cc3ccccc3)C(C)C)cc2c1 (configuration not stated),inactive
10,Cc1cc(=O)[nH]c(N/N=C/c2c(C)nn(-c3ccc(F)cc3)c2Cl)n1,"inconclusive: 5.62 µM [inhibitor, partial curve]"
11,O=C1c2ccccc2C(=O)N1CSc1nnnn1-c1ccccc1,inactive
12,CCN1C(=O)/C(=C2\C=Cc3cc(C)ccc3N2CC)OC1=S,"inconclusive: 2.82 µM [inhibitor, full curve]"
13,COC(=O)c1nn(-c2ccc(OC)cc2)c(=O)cc1NN,active: 14.1 µM
14,COc1cc(/C=N/NC(=O)c2cccc([N+](=O)[O-])c2)cc(OC)c1O,"inconclusive: 15.8 µM [inhibitor, partial curve]"
15,Cc1c(NC(=O)C(C)OC(=O)c2cc3c4ccccc4n(C)c3s2)c(=O)n(-c2ccccc2)n1C (configuration not stated),"inconclusive: 17.8 µM [inhibitor, single point]"
16,Cc1ccc2nc(N3CCN(c4cccc(Cl)c4)CC3)c3nnnn3c2c1,"inconclusive: 7.94 µM [inhibitor, partial curve]"
17,COCc1cc(=O)n2[nH]c(-c3ccco3)cc2n1,inactive
18,COc1cccc(/C=C/C(=C2/C(=O)N(c3ccccc3)N=C2C)c2ccc(Br)cc2)c1OC,"inconclusive: 3.16 µM [inhibitor, partial curve, poor fit]"
19,COc1ccc(CN(CC2CCC(C(=O)O)CC2)C(=S)Nc2ccccc2C)cc1 (configuration not stated),inactive
20,Cc1ccc2nc3ccc(N4CCN(C)CC4)nn3c(=O)c2c1,inactive
21,Cc1ccccc1C(=O)Nc1nc2nc(C)c(C)c(=O)n2[nH]1,inactive
22,COc1ccc(N2C(=O)CC(C#N)=C2N)cc1,"inconclusive: 14.1 µM [inhibitor, partial curve]"
23,O=C(NC(=S)Nc1cccc([N+](=O)[O-])c1)c1ccco1,inactive

row,SMILES,Potency
1,Cc1cccc(C(=O)Oc2ccccc2C2C[C@]3(C)CC(=O)NC3N2C(=O)c2cccc(C)c2)c1 (some centres not stated),"inconclusive: 35.5 µM [inhibitor, single point]"
2,COC(=O)C1=C(C)N(c2ccc(C)c(C)c2)/C(=C/c2cccs2)C1=O,"inconclusive: 10 µM [inhibitor, full curve]"
3,CCOc1ccc(N2CC(C(=O)N/N=C/c3sccc3C)CC2=O)cc1 (configuration not stated),"inconclusive: 5.62 µM [inhibitor, partial curve, poor fit]"
4,O=C(CCCNS(=O)(=O)c1cccs1)N1CCN(c2cccc(Cl)c2)CC1,"inconclusive: 22.4 µM [inhibitor, partial curve]"
5,O=C(CSc1ccc2ccccc2n1)Nc1ccc(N2CCOCC2)cc1,"inconclusive: 2.82 µM [inhibitor, full curve]"
6,Cc1cc(C)cc(NC2=C(c3ccccc3)C(=O)c3ccccc32)c1,"inconclusive: 12.6 µM [inhibitor, partial curve]"
7,COc1cc(C2C(=O)N(C3CCCCC3)CC(=O)N2CCC2=CCCCC2)ccc1OC(C)C (configuration not stated),inactive
8,C[C@H]1C(c2ccccc2)=NN(c2ccccc2)[C@@H]1CO,"inconclusive: 35.5 µM [inhibitor, partial curve]"
9,CCOc1ccc(-n2c(N)c(-c3nc4ccccc4[nH]3)sc2=S)cc1,"inconclusive: 2.82 µM [inhibitor, partial curve]"
10,Cc1ccc2cc(C#N)c(N3CCCN(C(=O)C4CCCO4)CC3)nc2c1C (configuration not stated),"inconclusive: 22.4 µM [inhibitor, partial curve]"
11,O=[N+]([O-])c1ccccc1Nc1ccc(O)cc1,active: 22.4 µM
12,Cc1ccc(S(=O)(=O)NCCSc2ncccn2)cc1,inactive
13,CC(=O)Nc1ccccc1-c1nc2ccccc2n(CC(=O)c2ccc(Br)cc2)c1=O,inactive
14,CCN(CC)c1ccc(C=C2C(=O)OC3(CCCC3)OC2=O)cc1,inactive
15,C/C(=N\NC(=O)CCc1c[nH]c2ccccc12)c1cccc([N+](=O)[O-])c1,"inconclusive: 20 µM [inhibitor, partial curve]"
16,CCN(CC)S(=O)(=O)c1cccc(C(=O)Nc2cc3oc4ccccc4c3cc2OC)c1,"inconclusive: 3.55 µM [inhibitor, single point]"
17,CC(=O)O[C@H]1C2=C(C(=O)[C@H]3O[C@@H]31)[C@@H]1[C@@H]3[C@@H](C)OC=C4[C@H](O)[C@H]5O[C@@H]5C(=O)[C@]43C2O[C@H]1C,"inconclusive: 6.31 µM [inhibitor, single point]"
18,Cc1ccc(-n2nc3c(N4CCC(C(=O)NC(C)c5ccccc5)CC4)nnc(C)c3c2C)cc1 (configuration not stated),"inconclusive: 11.2 µM [inhibitor, partial curve]"
19,Fc1ccc(N/N=C2/CCSc3sccc32)c(F)c1,"inconclusive: 20 µM [inhibitor, partial curve]"
20,Cc1nc(COc2cccc(Cl)c2)sc1C(=O)/C=C/N(C)C,"inconclusive: 20 µM [inhibitor, partial curve]"
21,CCOCCCn1c(=N)c(C(=O)NCc2cccnc2)cc2c(=O)n3cc(C)ccc3nc21,inactive
22,CCOC(=O)c1cnc2c(ccc3ccccc32)c1Nc1ccc(OCC)cc1,"inconclusive: 20 µM [inhibitor, partial curve, poor fit]"
23,C=CCc1cccc(C=Nc2cc(Br)ccc2O)c1O,"inconclusive: 17.8 µM [inhibitor, partial curve]"

row,SMILES,Potency
1,COc1ccc(CCNC(=O)c2cc3c(s2)-c2ccccc2OC3)cc1OC,"inconclusive: 0.891 µM [inhibitor, full curve]"
2,Cc1ccc(S(=O)(=O)Nc2ccc(N3CCOCC3)cc2)cc1,"inconclusive: 2 µM [inhibitor, full curve]"
3,COc1ccc(-c2cc(C(F)(F)F)nc(SCC(=O)N3CCCCC3C)n2)cc1OC (configuration not stated),"inconclusive: 11.2 µM [inhibitor, partial curve]"
4,CCc1cccc(C)c1NC(=O)C1CCN(c2nn3c(=O)cc(C)nc3s2)CC1,"inconclusive: 10 µM [inhibitor, partial curve, poor fit]"
5,NC(=O)C1CCN(c2oc(-c3ccccc3F)nc2S(=O)(=O)c2ccc(Cl)cc2)CC1,"inconclusive: 10 µM [inhibitor, partial curve, poor fit]"
6,CCOC(=O)c1c(N)sc2c(OC)c(Br)ccc12,"inconclusive: 28.2 µM [inhibitor, partial curve]"
7,CCOC(=O)c1sc2nc(NC(=O)C3CC3)sc2c1C,"inconclusive: 3.16 µM [inhibitor, full curve, poor fit]"
8,CN(C)c1ccc(-c2nc(NC3CCNCC3)c3ccccc3n2)cc1,"inconclusive: 22.4 µM [inhibitor, partial curve]"
9,O=C(c1ccccc1)N1CCN(c2ncnc3c2cnn3-c2ccccc2)CC1,"inconclusive: 25.1 µM [inhibitor, single point]"
10,CS(=O)(=O)N(CC(=O)Nc1ccc(S(=O)(=O)N2CCCC2)cc1)c1ccccc1,inactive
11,COc1ccc(-c2nsc3c(N4CCCC4)ncnc23)cc1,"inconclusive: 1.41 µM [inhibitor, full curve]"
12,CN1c2ccccc2C(O)=C(C(=S)Nc2ccc(Cl)cc2)S1(=O)=O,"inconclusive: 6.31 µM [inhibitor, full curve]"
13,O=C(NCC1OCCc2ccccc21)c1ccco1 (configuration not stated),inactive
14,COc1ccc(CCNC(=O)c2cnc3sc(N4CCCCC4)nn3c2=O)cc1OC,inactive
15,CCOC(=O)C1CCN(C(=O)CSCc2nc(-c3ccc(OCC)cc3)oc2C)CC1,"inconclusive: 25.1 µM [inhibitor, partial curve]"
16,O=C1/C(=C/c2cccc3ccccc23)CCCc2ccccc21,"inconclusive: 15.8 µM [inhibitor, partial curve]"
17,Cc1ccc(C)c(-c2nnc(NC(=O)c3ccc4c(c3)OCCO4)o2)c1,"inconclusive: 3.16 µM [inhibitor, full curve]"
18,COc1ccc(CCNC(=O)Cn2c(=O)c3cccn3c3ccc(F)cc32)c(OC)c1,"inconclusive: 31.6 µM [inhibitor, single point]"
19,CCCC(=O)N1CCCC(c2nc(-c3cccs3)no2)C1 (configuration not stated),inactive
20,CC(C)(C)C(=O)NC(=S)Nc1sc2c(c1C#N)CCCCC2,"inconclusive: 11.2 µM [inhibitor, partial curve]"
21,[O-]/C(=C(\C(=S)Nc1cccc2ccccc12)[n+]1ccccc1)c1cccs1,"inconclusive: 28.2 µM [inhibitor, partial curve]"

# Source: PubChem BioAssay AID1460 (National Center for Advancing Translational Sciences (NCATS), 2008)
